# Results: article PMC6451091
# The list shows a part of the results. For part of these data: At the low end of the ranking the order means little. For part of these data: Measured with an extract: partners may take part in the binding.
# What was measured:
# Details in all cases: 20 mM HEPES pH 7.9, 100 mM NaCl, 1 mM DTT, 0.2 mg/mL BSA, 0.02% Triton X-100, 2% milk, 0.4 mg/mL salmon testes DNA; 1 h; temperature not stated; high values mean tight binding; double strand, one strand shown; sequences stand for … in GCCTAGCAC…GTGCTAGGTCTTGATTCGCTTGACGCTGCTG
# PU.1 (IVT) = PU.1 (IVT) (UniProt P17947); experiment: protein-binding microarray (PBM)
# [1] = molecular target: PU.1 (endogenous, THP-1 nuclear extract) (UniProt P17947); experiment: nuclear extract protein-binding microarray (nextPBM)
# [2] = molecular target: T1, FLI1 (endogenous, THP-1 nuclear extract) (UniProt Q01543); experiment: as above
# T1 sequence: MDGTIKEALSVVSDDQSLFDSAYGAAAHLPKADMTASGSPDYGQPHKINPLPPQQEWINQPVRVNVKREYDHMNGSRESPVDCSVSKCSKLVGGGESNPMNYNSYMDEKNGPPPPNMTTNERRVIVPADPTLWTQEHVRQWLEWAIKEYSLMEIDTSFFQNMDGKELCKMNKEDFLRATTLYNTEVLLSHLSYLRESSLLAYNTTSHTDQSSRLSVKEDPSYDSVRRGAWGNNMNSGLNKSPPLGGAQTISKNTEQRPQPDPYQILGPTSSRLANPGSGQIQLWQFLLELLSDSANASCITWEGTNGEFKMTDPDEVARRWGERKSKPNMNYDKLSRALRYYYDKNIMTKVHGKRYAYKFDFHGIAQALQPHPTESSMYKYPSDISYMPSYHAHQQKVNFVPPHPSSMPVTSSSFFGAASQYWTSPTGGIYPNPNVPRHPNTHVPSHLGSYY
# [3] = tested on: PU.1 (endogenous, THP-1 nuclear extract) + IRF8 (endogenous, THP-1 nuclear extract); experiment: as above
Sequence,binding signal (PU.1 (IVT)) [z-score],binding signal [1] [z-score],binding signal [2] [z-score],binding signal [3] [z-score]
GATAAGACTGCCTGAAAGCT,-0.588,-0.353,-0.693,0.816
AGTCACCAGGGCTGGGAAGC,-0.123,0.273,0.11,0.275
CGTGTCACCCAGTACGCGGC,-0.566,-0.137,-0.806,0.903
CAGCACCAGGGGCACATTTG,0.034,-0.341,-1.01,0.748
AGGCCATTTAGGAATCTTCT,-0.495,-0.0474,-0.279,0.659
CCCCCAAACAGATGAGTAAG,-0.274,-0.271,0.712,-0.852
GGCATTGAGAGAAAATGGGC,-0.0833,-0.501,-0.305,-1.53
TCACTCTCCTACACTTGAGG,-0.507,-0.375,0.173,0.8
AGCCCACTCAGGGTTCTGTG,-0.692,-0.617,-0.692,0.38
AAACAGAGACTTCACAAAAT,0.0327,0.143,-0.253,0.461
CAGGCAACTGCCTGAAACTC,-0.184,-0.148,-0.573,2.1
CTACTAGGCTTTATGGTTAG,-0.437,-0.356,-0.094,0.226
TAAACAGTCTGTGGAGATAA,0.087,-0.218,-0.791,-0.704
TTGTATTTTTAGTAGAGACG,-0.142,-0.398,-0.154,-0.695
GGAACAAACGTGATGGTCCA,-0.135,0.189,0.111,-0.569
TATAAGTTTAGGGTATTTAA,0.0497,-0.232,-0.00259,-0.174
ATTTTAGCTGCCTGAAAGCC,-0.444,-0.704,-0.608,-1.2
AGTCCTGAGTCAGAGGCAAG,-0.439,-0.326,-0.442,-0.0515
